Experimental data published in patent US20250388641A1 (CUGENE, published 2025).
Each block holds one binder with its values, some of them ahead of it.

How the values were obtained:
[1] = molecular target: T1, huIL-15Rβ-6His (human, UniProt P14784 27-240, limits assumed); assay: ELISA binding EC50 relative to wild type P-0153
T1 construct: Coated on the ELISA plate; also called hull-15Rβ-6His; IL-15Rβ subunit
T1 sequence: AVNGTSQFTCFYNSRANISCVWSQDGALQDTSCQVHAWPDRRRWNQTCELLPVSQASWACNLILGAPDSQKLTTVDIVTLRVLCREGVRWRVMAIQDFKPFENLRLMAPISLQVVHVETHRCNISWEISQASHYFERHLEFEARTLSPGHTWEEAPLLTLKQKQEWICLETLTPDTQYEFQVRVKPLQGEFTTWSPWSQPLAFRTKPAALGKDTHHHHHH
Method: (§1) The binding activity was tested in ELISA assay. Briefly, Nunc Maxisorp (ThermoFisher) plates were coated overnight at 4° C. with hull-15Rβ-6His at 1 ug/well (100 μl/well) in bicarbonate buffer pH 9.4 (ThermoFisher). After washing 3 times with PBS/0.05% Tween20, plates were incubated with SuperBlock (300 μl/well) at room temperature for 2 hrs. to block nonspecific binding. After washing, IL-15 compounds each at 3-fold serial dilutions with blocking buffer were added to the plates (100 μl/well) and incubated at room temperature for 1 hr. After washing, the Fc fusions were detected by 1 hr. incubation at room temperature with a goat anti-human IgG Fc secondary antibody conjugated with horseradish peroxidase (HRP) at 1:5000 dilution in blocking buffer (ThermoFisher) (100 μl/well). After washing, TMB substrate (ThermoFisher) was added (100 μl/well). Plates were sealed and incubated 5-20 min at room temperature in dark. Reaction was stopped by adding 2N sulfuric acid (Ricca Chemical) (50 μL/well) and absorbance was read at 450-590 nm.

[2] = molecular target: T1, huIL-15Rβ-6His; assay: ELISA binding to IL-15Rβ, relative to wild type (repeats Table 3)
Method: as §1

[3] = molecular target: T1, huIL-15Rβ-6His; assay: ELISA, huIL-15Rβ-6His coated on plate, anti-human IgG Fc-HRP detection
Method: as §1

Fold change [1]: 2 fold | Fold change in binding EC50 [2]: 2 fold | EC50 [3]: 1.42 nM
B1: P-0179, IL-15/IL-15Rα heterodimeric Fc fusion, IL-15m1 (Q108S) (Fc fusion)
chain 1: [about 250 residues not shown][about 120 residues with changes not shown]
chain 2: DKTHTCPPCPAPEAAGAPSVFLFPPKPKDTLMISRTPEVTCVVVDVSHEDPEVKFNWYVDGVEVHNAKTKPREEQYNSTYRVVSVLTVLHQDWLNGKEYKCKVSNKALPAPIEKTISKAKGQPREPQVCTLPPSREEMTKNQVSLWCLVKGFYPSDIAVEWESNGQPENNYKTTPPVLDSDGSFFLYSKLTVDKSRWQQGNVFSCSVMHEALHNHYTQKSLSLSPGEPKSSDKTHTSPPSPITCPPPMSVEHADIWVKSYSLYSRERYICNSGFKRKAGTSSLTECVLNKATNVAHWTTPSLKCIRDPALVHQRPAPP

Fold change [1]: 4 fold | EC50 [3]: 2.76 nM
B2: P-0180, IL-15/IL-15Rα heterodimeric Fc fusion, IL-15m2 (Q108A) (Fc fusion)
chain 1: [about 250 residues not shown][about 120 residues with changes not shown]
chain 2: B1 chain 2
